Assay results from the supplement of paper PMC10369915.
Some of the results follow. Cut-off read from the data, not from the text of the source: active = 3.2 or more and inactive = the rest. Only a few entries rise above the background.

B1: GSS_Y270_R267W (peptide)
chain: YFWDGYMPRQY
B2: HARS1_Y363 (peptide)
chain: AAGGRYDGLVG
B3: HBA1_Y141_S139P (peptide)
chain: VLTPKYRGGGG
B4: GSTA3_Y74_N73D_YF (peptide)
chain: RAILDYIASKF
B5: GRIN2A_Y730_V734L (peptide)
chain: LDAFIYDAALL
B6: GRK3_Y109 (peptide)
chain: RSRQIYDAYIM
B7: GSDMC_Y26_P23S (peptide)
chain: LTSVKYLLSAT
B8: GRIN2A_Y1431_E1426K (peptide)
chain: KHVMPYAANKN
B9: HBA1_Y25_H21R (peptide)
chain: ARAGEYGAEAL
B10: HBA1_Y25_Y25H (peptide)
chain: AHAGEHGAEAL
B11: GUCY2C_Y681 (peptide)
chain: RKETFYTLSCR
B12: HBA1_Y25_A20D (peptide)
chain: DHAGEYGAEAL
B13: HARS1_Y363_D364Y_YF (peptide)
chain: AAGGRYFGLVG
B14: GRIN3A_Y831 (peptide)
chain: PDGVEYLKNDP
B15: H3-5_Y41 (peptide)
chain: VKPHRYRPGTV
B16: HBA1_Y25_E28D (peptide)
chain: AHAGEYGADAL
B17: HAO1_Y50 (peptide)
chain: SRWKLYPRMLR
B18: GSTO1_Y239_A236V (peptide)
chain: PEVCDYGLGGG
B19: GSR_Y158_R153C (peptide)
chain: CLNAIYQNNLT

The binders below were run against SHP2 C-SH2 domain E139D (assay: enrichment score (SH2-bound / input frequency) (ratio); bacterial display of known human phosphotyrosine sites (pTyr-Var adds point mutants) read by sequencing; higher = stronger binding; tyrosines were phosphorylated by kinases first). Conditions: peptide library: pTyr-Var.
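Note: displayed peptides selected on beads carrying the immobilized SH2 domain, with library peptides lacking any tyrosine serving as negative controls.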

Enrichment score, inactive:
B1 0.988
B2 0.6
B3 0.395
B4 1.5
B5 0.849
B6 0.992
B7 1.65
B8 1.59
B9 0.646
B10 0.534
B11 0.771
B12 0.403
B13 0.96
B14 0.687
B15 0.37
B16 0.515
B17 0.234
B18 0.524
B19 1.27

These binders were tested against SHP2 C-SH2 domain wild-type in the same assay as above. Conditions: peptide library: pTyr-Var.

Enrichment score, inactive:
B1 0.973
B2 1.21
B3 0.599
B4 1.31
B5 0.959
B6 0.801
B7 1.16
B8 1.45
B9 0.572
B10 0.456
B11 1.73
B12 0.531
B13 1.01
B14 0.83
B15 0.276
B16 0.439
B17 0.259
B18 0.884
B19 1.12

Each binder was assayed against SHP2 N-SH2 domain L43F in the same assay as above. Conditions: peptide library: pTyr-Var.

Enrichment score, inactive:
B1 0.874
B2 0.734
B3 0.537
B4 1.31
B5 0.855
B6 1.16
B7 1.32
B8 1.42
B9 0.568
B10 0.423
B11 1.05
B12 0.516
B13 0.958
B14 0.964
B15 0.317
B16 0.476
B17 0.246
B18 0.93
B19 0.999

What follows are binders tested against SHP2 N-SH2 domain T42A in the same assay as above. Conditions: peptide library: pTyr-Var.

Enrichment score, inactive:
B1 0.918
B2 0.69
B3 0.488
B4 1.32
B5 1.08
B6 0.907
B7 1.52
B8 1.14
B9 0.495
B10 0.492
B11 0.521
B12 0.453
B13 0.776
B14 0.731
B15 0.344
B16 0.426
B17 0.312
B18 0.673
B19 0.936

The binders below were run against SHP2 N-SH2 domain T52S in the same assay as above. Conditions: peptide library: pTyr-Var.

Enrichment score, inactive:
B1 1.02
B2 0.7
B3 0.422
B4 1.23
B5 0.863
B6 1.12
B7 1.52
B8 1.73
B9 0.474
B10 0.562
B11 0.526
B12 0.379
B13 0.918
B14 0.699
B15 0.289
B16 0.416
B17 0.175
B18 0.251
B19 0.936

These binders were tested against SHP2 N-SH2 domain wild-type in the same assay as above. Conditions: peptide library: pTyr-Var.

Enrichment score, inactive:
B1 0.966
B2 0.726
B3 0.629
B4 1.44
B5 0.848
B6 1.1
B7 1.31
B8 1.3
B9 0.768
B10 0.449
B11 1.04
B12 0.734
B13 0.931
B14 0.489
B15 0.39
B16 0.59
B17 0.319
B18 0.657
B19 1.14
